The source gives no read counts; variants with many changes may rest on few reads.
B1: OR4K15 (parent)
chain: GUUAACGGUCAUAGGCCAUGGAAACUAGGAGCACCAUUUCGCUGCCAGUGAAGAAAUGAACAAAGAAAAUCUGGGCCAGGCAGGCAUCAAAAGAAAUAGUCUUGCGCUCAACCAGAAAGUCUGUAAUCAUUUUAAGGGUA

Variants of: B1
Experiment: self-cleavage, relative activity (ratio to wild type); higher = more cleavage; in vitro, sequencing; the parent is a self-cleaving ribozyme

| Variant | self-cleavage |
| --- | --- |
| U100C A118G U130C | 1.34 |
| A36U A59G U127C | 0.94 |
| A23G A82U U131C | 0.21 |
| U2C A69U A92G A95G | 1.55 |
| C35G A56U U102C A117G | 2.11 |
| A30G A94G A114U U130C U133C | 0.04 |
| U2C A94G A126G | 1.62 |
| U19C A62G C105U A118G | 0.04 |
| A47G A68U G104A U131C | 0.02 |
| A67U A98G A114G | 0.24 |
| A23G U37C U43G A63G A118G U120C | 0.72 |
| A23G A86U U130C | 0.77 |
| A33G A82G U108C U132C | 0.01 |
| A60G U103C U133A | 0.74 |
| U37C A68U U139C | 1.48 |
| A55C A67G A86C | 0.59 |
| A33G C35U A89G | 0.7 |
| U19C A110G U127A | 0.03 |
| U43C A63G A91G | 1.05 |
| A4G A51G A67G A78G U103C | 0.1 |
| A23U A90G A134G U139C | 1.35 |

| Variant | self-cleavage |
| --- | --- |
| U3C U9C A82G A86G A116G | 0.03 |
| A5G U38C A62G U102A | 0.65 |
| U9C U43A A90G C128U A129G | 0.34 |
| U2C U57C G73A U103C | 0.08 |
| A30G A54G A56G A89G A96U A111G | 0.03 |
| C6A U72C U127C | 0.15 |
| U70C A117G A125G | 0.43 |
| U57C U72A U103A | 0.02 |
| C25A A33U U103C | 0.88 |
| A24G U39C A51C U124A | 0.52 |
| U19C U39A A96G | 1.37 |
| U12C U49C A91U | 0.68 |
| A56G A86G U102C | 2.2 |
| A54G A59U A64G | 1.37 |
| U2A U122C U131C | 1.22 |
| U9A A24C A111G | 0.06 |
| G84U U108C A118U | 0 |
| U37C A62G A63G U87C A129G U130G | 0.41 |
| A18U A62G U70C A140G | 0.39 |
| A111U U120C U130C | 0.01 |
| A5G A23G A51G U131C | 0.11 |

| Variant | self-cleavage |
| --- | --- |
| U9A U38G U72A A95G A111G | 0.04 |
| A27G A52G A56G A96G A110G | 0.19 |
| A22G U57C U103A C105U A110G U124A U132C | 0 |
| U49C A89G U108C | 0.01 |
| A64G A68G U120C A126G | 0.51 |
| A54U A64U U139C | 0.26 |
| A22G A91G A94G A98G U127C | 0.33 |
| A24G A60U U87C | 1.07 |
| U70A U87A U102C | 2.04 |
| U2A A22G A33U A36G | 1.02 |
| A30G U38C U39A A78U A92G | 0.41 |
| A18G A52G A66G A126G | 1.14 |
| A60G A96G U139C | 1.96 |
| A27G A51U A66G A69U | 0.89 |
| A13G A91G A94C | 0.46 |
| A27U U38C U133C | 1.94 |
| A54U A56G A66U A125U | 0.89 |
| A30G A91G U131C | 1.37 |
| A18G A60G A62G A98G A110G U122C | 0.09 |
| U49C A52G A68G | 0.93 |
| A55U U57C A89C U132C | 0.72 |

| Variant | self-cleavage |
| --- | --- |
| A5G U70C U87C | 1.39 |
| A51G A63G A68G | 1.62 |
| A24G U37A A55G | 1.47 |
| U3G A11G A78G | 0.31 |
| G1A A22G A24G | 0.85 |
| U39C U72G A118G | 0.26 |
| U38C U97C A134G | 0.86 |
| A11G A51U A110G | 0.21 |
| A13G G41A A54G U139C | 0.9 |
| G15A A27G U100C G104C A111G U122C | 0 |
| A51G A82G A110C A114G U127C | 0.01 |
| A24C A59G A92G A116G | 0.49 |
| U9C U39C A82G U87C | 0.35 |
| A95G A111G U132C | 0.04 |
| U38C A55G A56G A117U A126C | 0.67 |
| G7A U72C G104C A114U A118G | 0.01 |
| A52G A78G U102C | 0.47 |
| A33G A47U A60G U132C | 0.13 |
| A36U A56G A89G A96G A114G | 0.18 |
| U39C C46U A66G | 1.2 |
